Laboratory results as given in publication PMC4336329 (PLoS ONE, 2015).
Among all 310,000 compounds or so, about 14,000 (4.5%) showed an effect of 50% or more. The effect is printed as a negative number. Some of the results follow.

Molecular target: human ether-à-go-go-related gene (hERG) potassium channel (human, UniProt Q12809)
Test: primary screen, population patch clamp on CHO cells stably expressing hERG
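Also: peak tail current of the secondary pulse compared with the same well before compound.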

Sequence of human ether-à-go-go-related gene (hERG) potassium channel (Q12809 whole entry, looked up): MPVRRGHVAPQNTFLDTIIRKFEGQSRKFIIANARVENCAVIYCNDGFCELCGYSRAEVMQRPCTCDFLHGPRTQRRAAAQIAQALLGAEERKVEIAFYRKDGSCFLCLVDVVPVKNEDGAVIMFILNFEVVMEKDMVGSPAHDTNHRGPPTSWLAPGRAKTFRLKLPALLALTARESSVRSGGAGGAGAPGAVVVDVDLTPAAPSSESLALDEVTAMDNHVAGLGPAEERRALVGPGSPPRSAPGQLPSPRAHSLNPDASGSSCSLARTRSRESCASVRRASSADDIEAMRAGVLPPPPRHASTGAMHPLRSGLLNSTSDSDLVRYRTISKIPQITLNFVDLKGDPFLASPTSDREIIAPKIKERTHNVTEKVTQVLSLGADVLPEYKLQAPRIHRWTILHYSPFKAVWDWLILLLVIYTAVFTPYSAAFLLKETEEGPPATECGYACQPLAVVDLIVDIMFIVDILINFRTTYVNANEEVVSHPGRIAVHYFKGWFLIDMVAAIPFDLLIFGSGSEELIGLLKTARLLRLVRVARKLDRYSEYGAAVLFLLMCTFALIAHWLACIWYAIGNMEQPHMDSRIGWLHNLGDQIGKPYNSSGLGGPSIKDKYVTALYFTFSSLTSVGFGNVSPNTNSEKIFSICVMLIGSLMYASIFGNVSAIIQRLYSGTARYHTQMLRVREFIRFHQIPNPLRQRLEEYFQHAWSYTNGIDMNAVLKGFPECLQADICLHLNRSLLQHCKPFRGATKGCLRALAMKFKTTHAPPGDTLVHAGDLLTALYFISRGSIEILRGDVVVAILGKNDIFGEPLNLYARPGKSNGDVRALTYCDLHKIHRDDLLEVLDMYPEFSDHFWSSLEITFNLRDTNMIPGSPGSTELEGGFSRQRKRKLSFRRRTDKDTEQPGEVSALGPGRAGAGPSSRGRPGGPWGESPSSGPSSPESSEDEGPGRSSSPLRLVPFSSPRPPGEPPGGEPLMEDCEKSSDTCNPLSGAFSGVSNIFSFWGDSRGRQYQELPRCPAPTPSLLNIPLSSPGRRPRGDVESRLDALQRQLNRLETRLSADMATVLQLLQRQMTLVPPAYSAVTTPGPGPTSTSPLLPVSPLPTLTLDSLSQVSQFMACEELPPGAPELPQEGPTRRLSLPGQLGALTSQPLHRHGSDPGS

Structure (SMILES)	hERG current change (%, negative = inhibition) at 10uM [%]
Cn1nc(C(=O)Nc2cccc(S(=O)(=O)N3CCOCC3)c2)c2ccccc2c1=O	-29.5
COc1ccc(/C=N/NC(=O)c2csc(-n3nc(C)cc3C(F)(F)F)n2)cc1	-4.34
N=c1occ(C(=O)c2cc(F)ccc2O)cc1C(=O)NC1CCCCC1	0.995
Cl.OCCNc1nc(-c2ccccc2)nc2ccccc12	2.57
COC(=O)c1cc(S(=O)(=O)N2CCN(c3ccc([N+](=O)[O-])cc3)CC2)c[nH]1	-53.9
CSc1nc(-c2ccc(Cl)cc2)c(C#N)c(=O)[nH]1	13.1
Cc1c(NS(=O)(=O)c2cccc(C(=O)NCc3ccc(Cl)cc3)c2)c(=O)n(-c2ccccc2)n1C	6.89
CCCCn1c(N)c(N(CC(C)C)C(=O)C2CCN(S(=O)(=O)c3ccc(C)cc3C)CC2)c(=O)[nH]c1=O	8.25
N#Cc1ccsc1NC(=O)CN1CCN(S(=O)(=O)c2cc(Cl)ccc2Cl)CC1	-32
COc1ccc(C)cc1NC(=O)CN1CCCN(S(=O)(=O)c2ccc(Br)cc2)CC1	-39.5
COc1ccc(S(=O)(=O)NCCCCNS(=O)(=O)c2ccc(OC)cc2)cc1	1.03
Cc1cccc(NC(=S)NCC(c2ccccc2)N(C)C)c1 (centres unmarked)	-46.4
CN(C)c1nc(-c2cccs2)cc(C(F)(F)F)c1C#N	14.7
OCC[C@H]1C[C@H](O)[C@@H](O)[C@@]2(CCCc3ccccc3O2)O1	8.31
NC(=O)C1CCN(S(=O)(=O)c2cccc(S(=O)(=O)N3CCCCC3)c2)CC1	-5.81
COc1ccc(C2CC(=O)C3=C(C2)Nc2ncnn2C3c2ccccc2C)cc1 (centres unmarked)	-17.9
Cc1cc(C)cc(N(CC(=O)NC2CCCC2)S(=O)(=O)c2c(C)[nH]c(=O)[nH]c2=O)c1	7.99
O=C(NCC1CCCO1)C(c1ccc(F)cc1)N(Cc1ccc(F)cc1)C(=O)Cn1nnc(-c2cccs2)n1 (centres unmarked)	-10.9
CC(=O)Nc1ccc(OCc2ccc(S(=O)(=O)Cc3ccccc3)cc2)cc1	4.51
CNC(=O)CS(=O)CC(=O)Nc1cc(OCCOC)c(Cl)cc1Cl (centres unmarked)	17.2
O=[N+]([O-])c1ncn(C23CC4CC(CC(C4)C2)C3)n1	-8.76
O=C(CSc1ncn[nH]1)c1ccco1	15.3
CN(C)C(=O)CCc1nc(-c2ccc(C(C)(C)C)cc2)no1	-19
